± gives the standard deviation of the averaged measurements. Laboratory Escherichia coli strains with one amino-acid change in an essential protein, pooled on minimal glucose agar with carbenicillin or gentamicin at twice the control MIC (plus kanamycin and chloramphenicol for the plasmids), 48 h. Fold change of barcode share against drug-free plates; higher = less susceptible. Active = above 20 in both replicates (the paper's putatively resistant). '<' = one read or none on drug, '>' = one read or none on a drug-free plate. Shares are relative, so most strains fall below 1 when a few take over. Listed are strains with at least 15 reads on both drug-free plates, and hits; most hits rest on fewer reference reads. Replicate rank correlation about 0.5. Edits are read from barcodes.
Target: Escherichia coli (laboratory strain)
Assay: barcode share on antibiotic plates over drug-free plates; higher = less susceptible
Method: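 A pool of E. coli strains, each edited to carry one amino-acid change in an essential protein, was grown for 48 h on minimal glucose agar with or without antibiotic; strain barcodes were sequenced; mean of two replicates.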

[1] = antibiotic: carbenicillin, 2× MIC (3.1 µg/mL)
[2] = antibiotic: gentamicin, 2× MIC (MIC 0.45 µg/mL)

Protein	fold change of barcode share [1]	fold change of barcode share [2]
murI V90Q (protein) MATKLQDGNTPCLAATPSEPRPTVLVFDSGVGGLSVYDEIRHLLPDLHYIYAFDNVAFPYGEKSEAFIVERVVAIVTAVQERYPLALAVQACNTASTVSLPALREKFDFPVVGVVPAIKPAARLTANGIVGLLATRGTVKRSYTHELIARFANECQIEMLGSAEMVELAEAKLHGEDVSLDALKRILRPWLRMKEPPDTVVLGCTHFPLLQEELLQVLPEGTRLVDSGAAIARRTAWLLEHEAPDAKSADANIAFCMAMTPGAEQLLPVLQRYGFETLEKLAVLG	0.279 ± 0.021	0.00458 ± 0.00043
murI I75A (protein) MATKLQDGNTPCLAATPSEPRPTVLVFDSGVGGLSVYDEIRHLLPDLHYIYAFDNVAFPYGEKSEAFIVERVVAAVTAVQERYPLALAVVACNTASTVSLPALREKFDFPVVGVVPAIKPAARLTANGIVGLLATRGTVKRSYTHELIARFANECQIEMLGSAEMVELAEAKLHGEDVSLDALKRILRPWLRMKEPPDTVVLGCTHFPLLQEELLQVLPEGTRLVDSGAAIARRTAWLLEHEAPDAKSADANIAFCMAMTPGAEQLLPVLQRYGFETLEKLAVLG	0.305 ± 0.032	< 0.0103
murI I75Q (protein) MATKLQDGNTPCLAATPSEPRPTVLVFDSGVGGLSVYDEIRHLLPDLHYIYAFDNVAFPYGEKSEAFIVERVVAQVTAVQERYPLALAVVACNTASTVSLPALREKFDFPVVGVVPAIKPAARLTANGIVGLLATRGTVKRSYTHELIARFANECQIEMLGSAEMVELAEAKLHGEDVSLDALKRILRPWLRMKEPPDTVVLGCTHFPLLQEELLQVLPEGTRLVDSGAAIARRTAWLLEHEAPDAKSADANIAFCMAMTPGAEQLLPVLQRYGFETLEKLAVLG	0.472 ± 0.011	0.0157 ± 0.014
murI I40A (protein) MATKLQDGNTPCLAATPSEPRPTVLVFDSGVGGLSVYDEARHLLPDLHYIYAFDNVAFPYGEKSEAFIVERVVAIVTAVQERYPLALAVVACNTASTVSLPALREKFDFPVVGVVPAIKPAARLTANGIVGLLATRGTVKRSYTHELIARFANECQIEMLGSAEMVELAEAKLHGEDVSLDALKRILRPWLRMKEPPDTVVLGCTHFPLLQEELLQVLPEGTRLVDSGAAIARRTAWLLEHEAPDAKSADANIAFCMAMTPGAEQLLPVLQRYGFETLEKLAVLG	1.38 ± 0.78	0.00801 ± 0.00022
murI V90P (protein) MATKLQDGNTPCLAATPSEPRPTVLVFDSGVGGLSVYDEIRHLLPDLHYIYAFDNVAFPYGEKSEAFIVERVVAIVTAVQERYPLALAVPACNTASTVSLPALREKFDFPVVGVVPAIKPAARLTANGIVGLLATRGTVKRSYTHELIARFANECQIEMLGSAEMVELAEAKLHGEDVSLDALKRILRPWLRMKEPPDTVVLGCTHFPLLQEELLQVLPEGTRLVDSGAAIARRTAWLLEHEAPDAKSADANIAFCMAMTPGAEQLLPVLQRYGFETLEKLAVLG	0.277 ± 0.11	0.00518 ± 0.0058
murI I40W (protein) MATKLQDGNTPCLAATPSEPRPTVLVFDSGVGGLSVYDEWRHLLPDLHYIYAFDNVAFPYGEKSEAFIVERVVAIVTAVQERYPLALAVVACNTASTVSLPALREKFDFPVVGVVPAIKPAARLTANGIVGLLATRGTVKRSYTHELIARFANECQIEMLGSAEMVELAEAKLHGEDVSLDALKRILRPWLRMKEPPDTVVLGCTHFPLLQEELLQVLPEGTRLVDSGAAIARRTAWLLEHEAPDAKSADANIAFCMAMTPGAEQLLPVLQRYGFETLEKLAVLG	0.405 ± 0.35	0.02 ± 0.0088
murI I40Q (protein) MATKLQDGNTPCLAATPSEPRPTVLVFDSGVGGLSVYDEQRHLLPDLHYIYAFDNVAFPYGEKSEAFIVERVVAIVTAVQERYPLALAVVACNTASTVSLPALREKFDFPVVGVVPAIKPAARLTANGIVGLLATRGTVKRSYTHELIARFANECQIEMLGSAEMVELAEAKLHGEDVSLDALKRILRPWLRMKEPPDTVVLGCTHFPLLQEELLQVLPEGTRLVDSGAAIARRTAWLLEHEAPDAKSADANIAFCMAMTPGAEQLLPVLQRYGFETLEKLAVLG	0.426 ± 0.06	0.00529 ± 0.0029
murI V76Q (protein) MATKLQDGNTPCLAATPSEPRPTVLVFDSGVGGLSVYDEIRHLLPDLHYIYAFDNVAFPYGEKSEAFIVERVVAIQTAVQERYPLALAVVACNTASTVSLPALREKFDFPVVGVVPAIKPAARLTANGIVGLLATRGTVKRSYTHELIARFANECQIEMLGSAEMVELAEAKLHGEDVSLDALKRILRPWLRMKEPPDTVVLGCTHFPLLQEELLQVLPEGTRLVDSGAAIARRTAWLLEHEAPDAKSADANIAFCMAMTPGAEQLLPVLQRYGFETLEKLAVLG	0.453 ± 0.22	< 0.0108
murI I75W (protein) MATKLQDGNTPCLAATPSEPRPTVLVFDSGVGGLSVYDEIRHLLPDLHYIYAFDNVAFPYGEKSEAFIVERVVAWVTAVQERYPLALAVVACNTASTVSLPALREKFDFPVVGVVPAIKPAARLTANGIVGLLATRGTVKRSYTHELIARFANECQIEMLGSAEMVELAEAKLHGEDVSLDALKRILRPWLRMKEPPDTVVLGCTHFPLLQEELLQVLPEGTRLVDSGAAIARRTAWLLEHEAPDAKSADANIAFCMAMTPGAEQLLPVLQRYGFETLEKLAVLG	0.348 ± 0.015	< 0.00756
murG L186Q (protein) MSGQGKRLMVMAGGTGGHVFPGLAVAHHLMAQGWQVRWLGTADRMEADLVPKHGIEIDFIRISGLRGKGIKALIAAPLRIFNAWRQARAIMKAYKPDVVLGMGGYVSGPGGLAAWSLGIPVVLHEQNGIAGLTNKWLAKIATKVMQAFPGAFPNAEVVGNPVRTDVLALPLPQQRLAGREGPVRVQVVGGSQGARILNQTMPQVAAKLGDSVTIWHQSGKGSQQSVEQAYAEAGQPQHKVTEFIDDMAAAYAWADVVVCRSGALTVSEIAAAGLPALFVPFQHKDRQQYWNALPLEKAGAAKIIEQPQLSVDAVANTLAGWSRETLLTMAERARAASIPDATERVANEVSRVARA	0.26767 ± 0.00011	< 0.00195
murG L186D (protein) MSGQGKRLMVMAGGTGGHVFPGLAVAHHLMAQGWQVRWLGTADRMEADLVPKHGIEIDFIRISGLRGKGIKALIAAPLRIFNAWRQARAIMKAYKPDVVLGMGGYVSGPGGLAAWSLGIPVVLHEQNGIAGLTNKWLAKIATKVMQAFPGAFPNAEVVGNPVRTDVLALPLPQQRLAGREGPVRVDVVGGSQGARILNQTMPQVAAKLGDSVTIWHQSGKGSQQSVEQAYAEAGQPQHKVTEFIDDMAAAYAWADVVVCRSGALTVSEIAAAGLPALFVPFQHKDRQQYWNALPLEKAGAAKIIEQPQLSVDAVANTLAGWSRETLLTMAERARAASIPDATERVANEVSRVARA	0.604 ± 0.14	0.0196 ± 0.017
murG L186P (protein) MSGQGKRLMVMAGGTGGHVFPGLAVAHHLMAQGWQVRWLGTADRMEADLVPKHGIEIDFIRISGLRGKGIKALIAAPLRIFNAWRQARAIMKAYKPDVVLGMGGYVSGPGGLAAWSLGIPVVLHEQNGIAGLTNKWLAKIATKVMQAFPGAFPNAEVVGNPVRTDVLALPLPQQRLAGREGPVRVPVVGGSQGARILNQTMPQVAAKLGDSVTIWHQSGKGSQQSVEQAYAEAGQPQHKVTEFIDDMAAAYAWADVVVCRSGALTVSEIAAAGLPALFVPFQHKDRQQYWNALPLEKAGAAKIIEQPQLSVDAVANTLAGWSRETLLTMAERARAASIPDATERVANEVSRVARA	0.269 ± 0.0063	< 0.00232
asnS V74P (protein) MSVVPVADVLQGRVAVDSEVTVRGWVRTRRDSKAGISFLAVYDGSCFDPVQAVINNSLPNYNEDVLRLTTGCSPIVTGKVVASPGQGQQFEIQASKVEVAGWVEDPDTYPMAAKRHSIEYLREVAHLRPRTNLIGAVARVRHTLAQALHRFFNEQGFFWVSTPLITASDTEGAGEMFRVSTLDLENLPRNDQGKVDFDKDFFGKESFLTVSGQLNGETYACALSKIYTFGPTFRAENSNTSRHLAEFWMLEPEVAFANLNDIAGLAEAMLKYVFKAVLEERADDMKFFAERVDKDAVSRLERFIEADFAQVDYTDAVTILENCGRKFENPVYWGVDLSSEHERYLAEEHFKAPVVVKNYPKDIKAFYMRLNEDGKTVAAMDVLAPGIGEIIGGSQREERLDVLDERMLEMGLNKEDYWWYRDLRRYGTVPHSGFGLGFERLIAYVTGVQNVRDVIPFPRTPRNASF	0.376 ± 0.089	
asnS I75A (protein) MSVVPVADVLQGRVAVDSEVTVRGWVRTRRDSKAGISFLAVYDGSCFDPVQAVINNSLPNYNEDVLRLTTGCSVAVTGKVVASPGQGQQFEIQASKVEVAGWVEDPDTYPMAAKRHSIEYLREVAHLRPRTNLIGAVARVRHTLAQALHRFFNEQGFFWVSTPLITASDTEGAGEMFRVSTLDLENLPRNDQGKVDFDKDFFGKESFLTVSGQLNGETYACALSKIYTFGPTFRAENSNTSRHLAEFWMLEPEVAFANLNDIAGLAEAMLKYVFKAVLEERADDMKFFAERVDKDAVSRLERFIEADFAQVDYTDAVTILENCGRKFENPVYWGVDLSSEHERYLAEEHFKAPVVVKNYPKDIKAFYMRLNEDGKTVAAMDVLAPGIGEIIGGSQREERLDVLDERMLEMGLNKEDYWWYRDLRRYGTVPHSGFGLGFERLIAYVTGVQNVRDVIPFPRTPRNASF	0.27 ± 0.1	0.00883 ± 0.0037
